Measured values as given in PMC9911399, “Two distinct binding modes provide the RNA-binding protein RbFox with extraordinary sequence specificity”.
Changes are numbered by the printed parent chain; changes in the protein carry UniProt numbers. The list shows a part of the results.

T1: RBFOX1 RRM RbFoxmut (Fox-RRM*) (Homo sapiens, UniProt Q9NWB1 109-208, R118D;E147R;N151S;E152T)
T1 sequence: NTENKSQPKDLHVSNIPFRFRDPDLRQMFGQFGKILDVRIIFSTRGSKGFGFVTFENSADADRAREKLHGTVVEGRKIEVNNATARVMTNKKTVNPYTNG

B1: UCAAAUA (DNA:RNA)
RNA: GGGAGACCGGAAUUCAGAUUGUCCUCAAAUAUUAAAUCCCGUCGUAGCCACCA
DNA 1: CAATCTGAATTCCGGTCTCCC
DNA 2: TGGTGGCTACGACGGGATT
B2: GAUAUUG (DNA:RNA)
RNA: B1 RNA with U25G, C26A, A27U, A29U, A31G
DNA 1: CAATCTGAATTCCGGTCTCCC
DNA 2: TGGTGGCTACGACGGGATT
B3: UCACAAA (DNA:RNA)
RNA: B1 RNA with A28C, U30A
DNA 1: CAATCTGAATTCCGGTCTCCC
DNA 2: TGGTGGCTACGACGGGATT
B4: UUAGAUG (DNA:RNA)
RNA: B1 RNA with C26U, A28G, A31G
DNA 1: CAATCTGAATTCCGGTCTCCC
DNA 2: TGGTGGCTACGACGGGATT
B5: CAAGACG (DNA:RNA)
RNA: B1 RNA with U25C, C26A, A28G, U30C, A31G
DNA 1: CAATCTGAATTCCGGTCTCCC
DNA 2: TGGTGGCTACGACGGGATT
B6: CUGGAAA (DNA:RNA)
RNA: B1 RNA with U25C, C26U, A27G, A28G, U30A
DNA 1: CAATCTGAATTCCGGTCTCCC
DNA 2: TGGTGGCTACGACGGGATT
B7: CAGAAAU (DNA:RNA)
RNA: B1 RNA with U25C, C26A, A27G, U30A, A31U
DNA 1: CAATCTGAATTCCGGTCTCCC
DNA 2: TGGTGGCTACGACGGGATT
B8: GGCCUGC (DNA:RNA)
RNA: GGGAGACCGGAAUUCAGAUUGUCCGGCCUGCUUAAAUCCCGUCGUAGCCACCA
DNA 1: CAATCTGAATTCCGGTCTCCC
DNA 2: TGGTGGCTACGACGGGATT
B9: CCGCUAA (DNA:RNA)
RNA: B8 RNA with G25C, G26C, C27G, G30A, C31A
DNA 1: CAATCTGAATTCCGGTCTCCC
DNA 2: TGGTGGCTACGACGGGATT
B10: CAUGUAC (DNA:RNA)
RNA: B8 RNA with G25C, G26A, C27U, C28G, G30A
DNA 1: CAATCTGAATTCCGGTCTCCC
DNA 2: TGGTGGCTACGACGGGATT
B11: AACAUGC (DNA:RNA)
RNA: B8 RNA with G25A, G26A, C28A
DNA 1: CAATCTGAATTCCGGTCTCCC
DNA 2: TGGTGGCTACGACGGGATT
B12: GCCAGGU (DNA:RNA)
RNA: B8 RNA with G26C, C28A, U29G, C31U
DNA 1: CAATCTGAATTCCGGTCTCCC
DNA 2: TGGTGGCTACGACGGGATT
B13: AAGUCAU (DNA:RNA)
RNA: GGGAGACCGGAAUUCAGAUUGUCCAAGUCAUUUAAAUCCCGUCGUAGCCACCA
DNA 1: CAATCTGAATTCCGGTCTCCC
DNA 2: TGGTGGCTACGACGGGATT
B14: UGACGUC (DNA:RNA)
RNA: B8 RNA with G25U, C27A, U29G, G30U
DNA 1: CAATCTGAATTCCGGTCTCCC
DNA 2: TGGTGGCTACGACGGGATT
B15: UUCGAUU (DNA:RNA)
RNA: B1 RNA with C26U, A27C, A28G, A31U
DNA 1: CAATCTGAATTCCGGTCTCCC
DNA 2: TGGTGGCTACGACGGGATT
B16: AGGGCGG (DNA:RNA)
RNA: B13 RNA with A26G, U28G, A30G, U31G
DNA 1: CAATCTGAATTCCGGTCTCCC
DNA 2: TGGTGGCTACGACGGGATT
B17: AAUAAUA (DNA:RNA)
RNA: B1 RNA with U25A, C26A, A27U
DNA 1: CAATCTGAATTCCGGTCTCCC
DNA 2: TGGTGGCTACGACGGGATT
B18: AGAAUAU (DNA:RNA)
RNA: B13 RNA with A26G, G27A, U28A, C29U
DNA 1: CAATCTGAATTCCGGTCTCCC
DNA 2: TGGTGGCTACGACGGGATT
B19: GGAGCUG (DNA:RNA)
RNA: B8 RNA with C27A, C28G, U29C, G30U, C31G
DNA 1: CAATCTGAATTCCGGTCTCCC
DNA 2: TGGTGGCTACGACGGGATT
B20: ACGGUAA (DNA:RNA)
RNA: B13 RNA with A26C, U28G, C29U, U31A
DNA 1: CAATCTGAATTCCGGTCTCCC
DNA 2: TGGTGGCTACGACGGGATT

These binders were tested against T1, RBFOX1 RRM RbFoxmut (Fox-RRM*) (assay: EMSA; HiTS-Eq, 1 nM pool, 10 min; buffer printed only for the single-RNA assays: 10 mM Tris pH 7.5, 150 mM NaCl, 3.4 mM EDTA, 0.001% NP-40, 30 C). Settings: tags: His6 N-terminal (pET28a); label: 5' 32P.
Outline: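 Purified wild-type or mutant RbFox RRM at increasing concentrations was equilibrated with 1 nM of 5′-radiolabelled RNA carrying 7 randomized nucleotides for 10 min in 50 µL. Unbound RNA was separated by 8% native PAGE and sequenced. Relative association constants came from read-count changes of each RNA species compared with the control reaction, normalised to the cognate motif.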
B1 was tested, and the binding signal was 0.117 KA relative to UGCAUGU. In the case of B2, the binding signal is reported as 0.127 KA relative to UGCAUGU. B3 was tested, and the binding signal was 0.0764 KA relative to UGCAUGU. With B4 the binding signal was 0.103 KA relative to UGCAUGU. B5 was tested, and the binding signal was 0.0698 KA relative to UGCAUGU. With B6 the binding signal was 0.0921 KA relative to UGCAUGU. For B7, the binding signal was 0.089 KA relative to UGCAUGU. B8 was tested, and the binding signal was 0.131 KA relative to UGCAUGU. For B9, the binding signal was 0.0851 KA relative to UGCAUGU. For B10, the binding signal was 0.158 KA relative to UGCAUGU. B11 was tested, and the binding signal was 0.0713 KA relative to UGCAUGU. With B12 the binding signal was 0.0955 KA relative to UGCAUGU. For B13, the binding signal was 0.0856 KA relative to UGCAUGU. For B14, the binding signal was 0.0923 KA relative to UGCAUGU. With B15 the binding signal was 0.0793 KA relative to UGCAUGU. With B16 the binding signal was 0.117 KA relative to UGCAUGU. For B17, the binding signal was 0.0507 KA relative to UGCAUGU. In the case of B18, the binding signal is reported as 0.119 KA relative to UGCAUGU. In the case of B19, the binding signal is reported as 0.13 KA relative to UGCAUGU. With B20 the binding signal was 0.115 KA relative to UGCAUGU.
